No constants are given. Whether binding was seen depends on the method and setting. In cells and extracts the contact can be indirect. Some binding calls cover weakened binding; strength is not graded here. Blank lines part the entries; values can stand above or below the substance they belong to.
How the values were obtained:
[1] = biological target: FLAG-CLASPIN ΔF3 mutant (human) (UniProt Q9HAW4); test: co-IP; HEK293T cells co-transfected with tagged proteins, lysed in NETN buffer, anti-FLAG M2 beads 4 h, 4°C, immunoblot; in some panels cells mock-treated or treated with 2 mM HU for 1 h, or transfected with siNC or siTRIM21
CLASPIN Δ401–500 (human) = CLASPIN Δ401–500 (human) (UniProt Q9HAW4); test: as above
FLAG-CLASPIN (human) = FLAG-CLASPIN (human) (UniProt Q9HAW4); test: as above
[2] = biological target: FLAG-tagged CLASPIN ΔF2 mutant (human) (UniProt Q9HAW4); test: as above
[3] = biological target: FLAG-CLASPINΔ501–600aa (human) (UniProt Q9HAW4); test: as above
CLASPIN Δ331–400 (human) = CLASPIN Δ331–400 (human) (UniProt Q9HAW4); test: as above
[4] = biological target: CLASPIN (endogenous) (human (endogenous in HEK293T)) (UniProt Q9HAW4); test: co-IP; endogenous proteins; HEK293T lysate in NETN buffer (100 mM NaCl, 1 mM EDTA, 20 mM Tris-HCl pH 8.0, 0.5% NP-40), anti-CLASPIN antibody 4 h then protein A beads, 4°C; untreated cells and cells treated with 2 mM HU for the indicated times
FLAG-TRIM21 (human) = FLAG-TRIM21 (human) (UniProt P19474); test: co-IP; HEK293T cells co-transfected with tagged proteins, lysed in NETN buffer, anti-FLAG M2 beads 4 h, 4°C, immunoblot; in some panels cells mock-treated or treated with 2 mM HU for 1 h, or transfected with siNC or siTRIM21

Sequences of proteins named here, by UniProt entry; tags and fusion partners are left off. A change or cut given only in a name is not applied to a line headed by its entry. A line that says so, or that is headed by a name, gives the form on record, which may keep a tag or linker.
UniProt Q9HAW4: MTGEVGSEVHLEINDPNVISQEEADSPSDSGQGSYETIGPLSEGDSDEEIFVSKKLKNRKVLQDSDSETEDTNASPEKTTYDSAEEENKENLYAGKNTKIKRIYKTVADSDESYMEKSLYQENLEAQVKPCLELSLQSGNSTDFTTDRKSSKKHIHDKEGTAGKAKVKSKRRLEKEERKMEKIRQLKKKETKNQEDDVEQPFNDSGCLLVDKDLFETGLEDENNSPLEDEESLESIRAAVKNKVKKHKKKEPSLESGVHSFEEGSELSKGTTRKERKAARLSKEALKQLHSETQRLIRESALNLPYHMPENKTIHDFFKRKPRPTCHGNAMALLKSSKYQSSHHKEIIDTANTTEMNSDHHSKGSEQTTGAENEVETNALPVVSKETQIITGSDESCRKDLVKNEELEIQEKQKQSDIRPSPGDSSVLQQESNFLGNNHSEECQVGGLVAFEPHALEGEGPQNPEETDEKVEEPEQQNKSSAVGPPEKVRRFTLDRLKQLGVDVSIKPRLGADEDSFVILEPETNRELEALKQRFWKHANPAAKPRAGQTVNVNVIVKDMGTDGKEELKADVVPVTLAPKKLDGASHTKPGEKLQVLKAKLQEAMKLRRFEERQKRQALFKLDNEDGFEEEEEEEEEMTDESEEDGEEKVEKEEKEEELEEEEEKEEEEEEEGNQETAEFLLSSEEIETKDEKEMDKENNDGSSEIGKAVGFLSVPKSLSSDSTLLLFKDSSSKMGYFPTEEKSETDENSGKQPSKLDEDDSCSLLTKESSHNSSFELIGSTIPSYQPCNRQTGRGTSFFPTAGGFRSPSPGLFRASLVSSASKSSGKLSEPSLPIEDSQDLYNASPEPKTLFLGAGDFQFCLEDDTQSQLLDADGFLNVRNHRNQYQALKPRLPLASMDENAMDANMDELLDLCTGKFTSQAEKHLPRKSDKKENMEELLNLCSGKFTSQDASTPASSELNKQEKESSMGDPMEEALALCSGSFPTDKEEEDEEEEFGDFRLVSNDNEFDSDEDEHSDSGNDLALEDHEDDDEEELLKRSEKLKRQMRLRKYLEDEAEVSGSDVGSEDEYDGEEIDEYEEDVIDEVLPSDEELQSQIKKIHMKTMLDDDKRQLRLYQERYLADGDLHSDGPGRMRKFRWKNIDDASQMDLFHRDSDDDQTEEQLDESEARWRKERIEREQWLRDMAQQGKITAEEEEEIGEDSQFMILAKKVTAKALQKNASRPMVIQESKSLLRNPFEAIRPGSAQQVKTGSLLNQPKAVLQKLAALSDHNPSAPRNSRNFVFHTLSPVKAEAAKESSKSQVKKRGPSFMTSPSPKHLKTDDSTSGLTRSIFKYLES
FLAG-CLASPIN ΔF3 mutant (Q9HAW4, form named): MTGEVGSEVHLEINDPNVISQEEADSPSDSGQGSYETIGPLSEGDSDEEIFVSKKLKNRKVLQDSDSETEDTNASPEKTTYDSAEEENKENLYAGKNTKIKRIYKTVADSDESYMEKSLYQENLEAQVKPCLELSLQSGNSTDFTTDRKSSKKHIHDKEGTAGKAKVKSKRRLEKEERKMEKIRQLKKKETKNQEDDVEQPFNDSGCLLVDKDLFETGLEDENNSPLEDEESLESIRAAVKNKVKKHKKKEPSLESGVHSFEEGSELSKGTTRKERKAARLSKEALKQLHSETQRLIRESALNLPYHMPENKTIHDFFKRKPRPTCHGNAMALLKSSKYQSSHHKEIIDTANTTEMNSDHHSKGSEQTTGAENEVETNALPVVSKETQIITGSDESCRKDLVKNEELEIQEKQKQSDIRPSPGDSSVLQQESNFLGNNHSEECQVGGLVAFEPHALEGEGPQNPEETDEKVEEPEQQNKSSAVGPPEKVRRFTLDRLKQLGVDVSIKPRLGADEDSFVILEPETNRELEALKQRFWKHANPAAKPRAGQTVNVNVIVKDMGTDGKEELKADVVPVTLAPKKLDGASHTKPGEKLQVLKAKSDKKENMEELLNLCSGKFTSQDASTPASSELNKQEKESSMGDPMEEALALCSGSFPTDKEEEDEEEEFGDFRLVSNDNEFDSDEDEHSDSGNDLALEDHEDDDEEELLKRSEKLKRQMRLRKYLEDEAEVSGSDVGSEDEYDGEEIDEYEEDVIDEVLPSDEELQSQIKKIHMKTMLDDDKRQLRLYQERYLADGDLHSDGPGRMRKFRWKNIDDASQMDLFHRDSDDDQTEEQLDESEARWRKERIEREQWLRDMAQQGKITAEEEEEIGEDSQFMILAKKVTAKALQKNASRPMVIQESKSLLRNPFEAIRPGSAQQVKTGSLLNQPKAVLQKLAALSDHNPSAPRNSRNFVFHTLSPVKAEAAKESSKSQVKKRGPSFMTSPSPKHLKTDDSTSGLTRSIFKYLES
CLASPIN Δ401–500 (Q9HAW4, form named): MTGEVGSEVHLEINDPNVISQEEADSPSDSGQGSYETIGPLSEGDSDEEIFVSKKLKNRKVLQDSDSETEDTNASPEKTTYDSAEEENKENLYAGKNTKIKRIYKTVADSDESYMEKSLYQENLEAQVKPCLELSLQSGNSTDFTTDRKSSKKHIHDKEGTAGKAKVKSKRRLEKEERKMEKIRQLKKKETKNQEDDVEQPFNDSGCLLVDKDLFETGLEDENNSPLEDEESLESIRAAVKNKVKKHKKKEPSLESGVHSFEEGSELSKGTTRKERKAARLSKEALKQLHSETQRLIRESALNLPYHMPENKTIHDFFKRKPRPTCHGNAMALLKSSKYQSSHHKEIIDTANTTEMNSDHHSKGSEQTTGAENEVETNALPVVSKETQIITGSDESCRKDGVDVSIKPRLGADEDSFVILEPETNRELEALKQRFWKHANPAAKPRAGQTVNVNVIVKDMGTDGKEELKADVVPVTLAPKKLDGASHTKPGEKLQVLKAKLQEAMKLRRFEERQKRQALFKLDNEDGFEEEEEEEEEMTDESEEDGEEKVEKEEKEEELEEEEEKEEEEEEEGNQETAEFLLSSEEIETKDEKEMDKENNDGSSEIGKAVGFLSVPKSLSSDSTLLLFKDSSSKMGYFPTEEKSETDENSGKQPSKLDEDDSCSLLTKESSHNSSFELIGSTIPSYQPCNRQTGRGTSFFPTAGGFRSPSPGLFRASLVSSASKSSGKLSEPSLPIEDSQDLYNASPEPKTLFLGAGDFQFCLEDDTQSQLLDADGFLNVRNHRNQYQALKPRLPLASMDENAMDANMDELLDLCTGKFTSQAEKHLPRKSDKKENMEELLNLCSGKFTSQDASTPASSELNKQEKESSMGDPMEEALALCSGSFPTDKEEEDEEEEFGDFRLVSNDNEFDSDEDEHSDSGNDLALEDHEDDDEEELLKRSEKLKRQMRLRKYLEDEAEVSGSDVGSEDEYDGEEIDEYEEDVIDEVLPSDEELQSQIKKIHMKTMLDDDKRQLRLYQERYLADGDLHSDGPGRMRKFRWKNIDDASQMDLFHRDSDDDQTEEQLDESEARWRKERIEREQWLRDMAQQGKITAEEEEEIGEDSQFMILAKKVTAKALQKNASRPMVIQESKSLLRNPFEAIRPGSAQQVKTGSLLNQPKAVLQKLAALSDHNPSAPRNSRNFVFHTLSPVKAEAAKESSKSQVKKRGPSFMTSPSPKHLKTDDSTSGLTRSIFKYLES
FLAG-tagged CLASPIN ΔF2 mutant (Q9HAW4, form named): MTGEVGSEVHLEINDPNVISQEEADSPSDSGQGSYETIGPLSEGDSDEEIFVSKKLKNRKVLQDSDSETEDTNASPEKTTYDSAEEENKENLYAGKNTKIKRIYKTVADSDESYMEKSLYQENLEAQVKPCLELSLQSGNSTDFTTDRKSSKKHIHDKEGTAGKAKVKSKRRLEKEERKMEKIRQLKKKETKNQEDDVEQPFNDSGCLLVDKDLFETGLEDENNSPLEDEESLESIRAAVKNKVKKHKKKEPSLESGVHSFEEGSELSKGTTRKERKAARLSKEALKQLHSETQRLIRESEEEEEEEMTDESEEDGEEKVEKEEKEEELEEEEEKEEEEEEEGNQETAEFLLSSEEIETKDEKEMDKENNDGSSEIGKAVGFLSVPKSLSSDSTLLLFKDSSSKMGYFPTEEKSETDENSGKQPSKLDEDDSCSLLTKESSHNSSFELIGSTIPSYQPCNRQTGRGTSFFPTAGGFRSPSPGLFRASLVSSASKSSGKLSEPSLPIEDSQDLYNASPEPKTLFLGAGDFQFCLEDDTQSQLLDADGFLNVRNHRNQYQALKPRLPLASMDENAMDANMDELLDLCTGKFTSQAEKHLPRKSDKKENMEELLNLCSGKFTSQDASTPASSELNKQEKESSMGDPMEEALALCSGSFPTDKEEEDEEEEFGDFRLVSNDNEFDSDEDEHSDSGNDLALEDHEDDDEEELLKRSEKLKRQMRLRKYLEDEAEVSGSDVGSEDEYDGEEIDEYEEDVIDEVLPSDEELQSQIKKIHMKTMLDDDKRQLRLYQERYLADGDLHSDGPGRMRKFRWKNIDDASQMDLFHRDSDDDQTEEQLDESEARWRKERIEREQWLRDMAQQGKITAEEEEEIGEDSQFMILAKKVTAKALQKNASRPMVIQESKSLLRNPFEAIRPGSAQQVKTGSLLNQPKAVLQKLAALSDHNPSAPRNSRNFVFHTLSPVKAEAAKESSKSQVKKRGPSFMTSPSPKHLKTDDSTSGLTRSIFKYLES
FLAG-CLASPINΔ501–600aa (Q9HAW4, form named): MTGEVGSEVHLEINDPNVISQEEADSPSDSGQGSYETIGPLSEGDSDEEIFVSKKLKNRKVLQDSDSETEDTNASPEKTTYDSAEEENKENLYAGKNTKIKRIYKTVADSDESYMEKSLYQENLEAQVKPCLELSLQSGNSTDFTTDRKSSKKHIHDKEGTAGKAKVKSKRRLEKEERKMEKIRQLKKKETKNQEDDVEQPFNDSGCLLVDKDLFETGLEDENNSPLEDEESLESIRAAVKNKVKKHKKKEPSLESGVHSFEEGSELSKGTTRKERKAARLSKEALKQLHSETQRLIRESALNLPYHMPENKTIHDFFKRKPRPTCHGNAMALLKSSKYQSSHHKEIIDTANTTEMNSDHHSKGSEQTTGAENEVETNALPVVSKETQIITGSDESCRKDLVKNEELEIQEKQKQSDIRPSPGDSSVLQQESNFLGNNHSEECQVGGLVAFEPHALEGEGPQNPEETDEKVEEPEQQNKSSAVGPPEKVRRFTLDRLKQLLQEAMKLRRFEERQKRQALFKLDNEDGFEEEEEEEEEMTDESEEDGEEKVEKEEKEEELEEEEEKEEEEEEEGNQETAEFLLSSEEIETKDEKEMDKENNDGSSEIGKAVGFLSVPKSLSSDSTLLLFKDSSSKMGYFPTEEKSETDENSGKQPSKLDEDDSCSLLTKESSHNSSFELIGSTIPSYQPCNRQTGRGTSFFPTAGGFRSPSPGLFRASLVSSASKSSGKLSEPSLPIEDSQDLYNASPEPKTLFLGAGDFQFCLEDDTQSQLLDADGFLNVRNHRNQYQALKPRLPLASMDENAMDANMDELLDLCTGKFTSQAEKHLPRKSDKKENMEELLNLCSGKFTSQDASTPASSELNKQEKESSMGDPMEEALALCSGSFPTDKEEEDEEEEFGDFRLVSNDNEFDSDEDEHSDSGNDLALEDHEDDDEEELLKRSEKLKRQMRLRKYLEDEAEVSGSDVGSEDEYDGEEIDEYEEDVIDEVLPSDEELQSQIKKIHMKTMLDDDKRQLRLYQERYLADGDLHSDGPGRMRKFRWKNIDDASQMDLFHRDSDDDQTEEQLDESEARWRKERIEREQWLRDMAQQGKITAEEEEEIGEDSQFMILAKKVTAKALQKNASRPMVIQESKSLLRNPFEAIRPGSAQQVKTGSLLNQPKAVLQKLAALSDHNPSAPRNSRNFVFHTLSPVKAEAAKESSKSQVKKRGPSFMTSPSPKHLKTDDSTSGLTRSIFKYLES
UniProt P19474: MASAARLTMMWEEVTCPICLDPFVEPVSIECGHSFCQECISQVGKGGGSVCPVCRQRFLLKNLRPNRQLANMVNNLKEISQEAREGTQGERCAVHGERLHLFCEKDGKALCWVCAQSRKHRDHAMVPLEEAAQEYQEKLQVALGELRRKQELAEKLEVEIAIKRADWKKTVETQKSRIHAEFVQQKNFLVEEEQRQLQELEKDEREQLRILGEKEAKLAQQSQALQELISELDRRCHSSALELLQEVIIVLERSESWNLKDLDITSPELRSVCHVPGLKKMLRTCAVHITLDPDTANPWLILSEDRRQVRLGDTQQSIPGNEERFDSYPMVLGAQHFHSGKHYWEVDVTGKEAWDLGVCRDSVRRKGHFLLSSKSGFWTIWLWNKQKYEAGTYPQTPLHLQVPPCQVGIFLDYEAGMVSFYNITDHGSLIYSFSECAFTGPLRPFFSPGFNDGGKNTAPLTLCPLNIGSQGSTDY

binding [1]: binds | binding (CLASPIN Δ401–500 (human)): binds | binding (FLAG-CLASPIN (human)): binds | binding [2]: no binding | binding [3]: binds | binding (CLASPIN Δ331–400 (human)): binds
Substance: HA-TRIM21 (from UniProt P19474 1-475)

binding [4]: binds
Substance: TRIM21 (endogenous) (from UniProt P19474 1-475)

binding (FLAG-TRIM21 (human)): binds
Substance: HA-CLASPIN (from UniProt Q9HAW4 1-1339)

From PMC8860585
